# In PubChem BioAssay AID1240 (Sanford-Burnham Center for Chemical Genomics, 2008):
# The whole screen tested about 50,000 compounds, of which about 800 (1.6%) showed an effect of 50% or more. The list shows a part of the results.
# Target: Bcl-2-like protein 10 (Homo sapiens) (UniProt Q9HD36)
# Experiment: Phenotype converters, Bcl-B/TR3 peptide binding displacement, primary biochemical FP (AID 1240);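 note: 0% = Bcl-B with tracer peptide and DMSO and 100% = tracer peptide lacking Bcl-B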
# Details: GST-Bcl-B / FITC-TR3 peptide fluorescence polarization; stronger effect = higher value; compound at 3.75 mg/L
# Chain of UniProt Q9HD36 (Q9HD36 whole entry, looked up): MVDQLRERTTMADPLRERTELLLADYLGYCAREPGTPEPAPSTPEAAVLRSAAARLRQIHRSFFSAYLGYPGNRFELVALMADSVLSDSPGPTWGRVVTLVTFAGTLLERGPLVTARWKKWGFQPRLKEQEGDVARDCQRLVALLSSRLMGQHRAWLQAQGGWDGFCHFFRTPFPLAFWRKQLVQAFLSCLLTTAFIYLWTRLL
row,SMILES,displacement [%]
1,CCCC(=O)Nc1cccc(C(=O)Nc2ccc(C(=O)O)cc2)c1,6.8
2,COc1ccccc1C/C(N)=N/OC(=O)c1ccc(C)c([N+](=O)[O-])c1,8.7
3,c1ccc2cc(Cn3cnc4ccccc43)ccc2c1,-17.8
4,CCC1(O)C(C)C(c2ccc(Cl)cc2)NC(c2ccc(Cl)cc2)C1C (stereo unspecified),6.1
5,O=c1/c(=C/c2ccc3c(c2)OCO3)sc2nc3ccccc3n12,69.3
6,COc1ccc(C2C3=C(CCCC3=O)OC3=C2C(=O)CCC3)cc1,6.9
7,O=CN1CCN(C(=O)c2ccc(I)cc2)CC1,-3.9
8,C=CCNC(=O)C(=O)NCc1ccc(Cl)cc1Cl,12.4
9,OCCCc1nc2ccccc2n1Cc1ccccc1,2.4
10,CC1C(C(=O)N(C=O)c2ccccc2F)C2C=CC1C21CC1 (stereo unspecified),-11.7
11,O=C(COc1ccc(/C=N/NS(=O)(=O)c2ccccc2)cc1)Nc1cccc(Cl)c1,5.1
12,O=C(Nc1ccccc1Cl)c1ccccc1C(F)(F)F,-8
13,Cc1ccc(S(=O)(=O)NC(C)C2C3CC4CC(C3)CC2C4)c(C)c1 (stereo unspecified),2
14,Cc1c(OC(C)C(=O)O)ccc2c3c(c(=O)oc12)CCC3 (stereo unspecified),10
15,CCN(CC)C(=O)c1cc(-c2ccc(OC)cc2)nc2ccccc12,-2.5
16,CC(Oc1ccc(Cl)cc1Cl)C(=O)NCCN(C)C (stereo unspecified),10.5
17,Cc1ccc(C2=C(C#N)C(N)=C(C#N)C3=CCCC32)c(C)c1 (stereo unspecified),34.7
18,COc1ccccc1C(=O)N/C(=C\c1ccc(Br)cc1)c1nc2ccccc2[nH]1,-0.9
19,COc1ccc(Nc2cc(C)nc(-n3nc(C)cc3C)n2)cc1,12.1
20,CCCOc1ccc(Cn2ccnc2)cc1[N+](=O)[O-],4.5
21,COc1ccc(-c2csc(Nc3ccccc3)n2)cc1,7.3
22,O=C1c2ccccc2NC(c2c(Cl)cccc2Cl)N1Cc1ccco1 (stereo unspecified),11.4
23,O=C(O)CSc1nncc2ccccc12,3.8
24,Fc1ccc(NC(=S)Nc2ccc(Oc3ccccc3)cc2)cc1,0.2

row,SMILES,displacement [%]
1,O=C(COc1ccc(Br)cc1)Nc1ccc(N2CCOCC2)cc1,-3.5
2,COc1ccc(/C(N)=N/OC(=O)COc2ccccc2)cc1,12.9
3,CCCC1(O)CC(c2ccccc2)NC(c2ccccc2)C1CC (stereo unspecified),10
4,O=C1Nc2c(c3ccccc3oc2=O)Nc2ccccc21,0.7
5,O=C(Nc1cccc(I)c1)c1ccccc1C(F)(F)F,0.9
6,CN1C(=O)/C(=N/OC(=O)c2ccc(Cl)cc2Cl)c2ccccc21,-8.5
7,C/C(=C1/C(=O)N(c2ccc([N+](=O)[O-])cc2)N=C1c1ccccc1)N(C)C,-10.2
8,CC(C)Oc1ccc(Cc2c(O)[nH]c(=S)[nH]c2=O)cc1,-1.9
9,O=c1[nH]c(=O)n(-c2ccccc2F)c(O)c1C=NCc1ccccc1F,4.2
10,Cc1ccc(NC(=O)CSC(N)=O)cc1Cl,4
11,O=C(/C=C/c1cccc([N+](=O)[O-])c1)Nc1ccc(F)cc1,-6.9
12,CC(=O)COc1ccc2c(C(F)(F)F)cc(=O)oc2c1,-9
13,CCSc1nnc2c(n1)OC(c1ccc(C(=O)O)cc1)Nc1ccccc1-2 (stereo unspecified),9.9
14,COC(=O)C1=C(C)NC(=S)NC1c1ccc(SC)cc1 (stereo unspecified),1.4
15,COc1cc2c(cc1OC)C1=NNC(=O)C1=NC(C)(C)C2,-2.9
16,O=c1[nH]nc(N/N=C/c2cccc3ccccc23)c(=O)[nH]1,-3.4
17,N#Cc1ccc(NC(=O)/C=C\C(=O)O)cc1,-3.4
18,COc1ccccc1NC(=O)c1ccccc1NC(=O)c1cccs1,3
19,CC1=C(C(=O)OC2CCCC2C)C(c2ccc(Br)cc2)NC(=O)N1 (stereo unspecified),3.9
20,O=C(CSc1nnc(-c2ccco2)n1-c1ccccc1)c1ccc2c(c1)Cc1ccccc1-2,-20.5
21,O=C(Nc1ccccc1)Nc1nnc(Cc2cccc(Br)c2)s1,1.9
22,COc1ccc(CNS(=O)(=O)c2ccccc2[N+](=O)[O-])cc1,-7.4
23,O=C(CSCC(=O)Nc1ccc2ccccc2c1)Nc1ccc(F)cc1,15.6
24,CC(C)(C)c1cc(/C=c2/sc3nc4ccccc4n3c2=O)cc(C(C)(C)C)c1O,-4.5

row,SMILES,displacement [%]
1,O=C1CSC(=Nc2ccc(O)cc2)N1,9.3
2,O=C1NC(=O)N(c2ccc(I)cc2)C(=O)/C1=C\C=C\c1ccco1,17.6
3,CCn1cc(/C=C(/C#N)C(=O)Nc2ccc(OC)cc2)c2ccccc21,-3.5
4,Cc1ccc(Cl)cc1NC(=O)CSc1nc2ccccc2s1,22.8
5,CCCC(=O)NC(c1ccc(C)cc1)c1c(OC(C)=O)ccc2ccccc12 (stereo unspecified),10.1
6,O=C(NCc1cccnc1)C(=O)N1CCCC1,11.3
7,O=C(NCCCn1ccnc1)C(O)(c1ccccc1)c1ccccc1,-11.4
8,COP(=O)(OC)C(Nc1cccc(C(F)(F)F)c1)c1ccc(Cl)cc1 (stereo unspecified),15.1
9,COc1ccc(C2CC(=O)C3=C(C2)Nc2ccccc2NC3c2cc(C)ccc2C)cc1 (stereo unspecified),-3.7
10,O=C(NNC(=O)C1CCCO1)c1ccc(Cl)cc1 (stereo unspecified),-5.2
11,O=C(O)c1cc(C(=O)O)c2cc(Cl)ccc2n1,4.4
12,O=C(c1cccnc1)N1CCCc2ccccc21,6.5
13,CCOc1cc(/C=C2/SC(=S)N(Cc3ccccc3)C2=O)ccc1OCc1ccccc1,22.7
14,CCOC(=O)C1=C(C)NC(=O)NC1c1ccc(OC)cc1 (stereo unspecified),12.4
15,CC(C)C1=NN2C(=N)/C(=C/c3ccc(-c4ccc([N+](=O)[O-])cc4)o3)C(=O)N=C2S1,111
16,COc1ccc(Cc2c(O)nc(SCC(=O)Nc3ccccc3OC)[nH]c2=O)cc1,-0.7
17,CN(C)c1ccc(N/C(N)=N/c2nc(C(F)(F)F)cc(=O)[nH]2)cc1,-5.8
18,COC(=O)C1CC(=O)N(c2ccc(O)cc2)C1 (stereo unspecified),10.4
19,CC(C)(C)c1ccc(C(=O)NCc2ccccn2)cc1,6
20,COc1ccc(OC)c(C2C=C(Nc3ccccc3)C(=O)N2c2ccccc2)c1 (stereo unspecified),-1.5
21,COc1cc(NC(=O)c2ccc(Cl)c(Cl)c2)c(OC)cc1NC(C)=O,6.3
22,COn1c(=O)c(=O)n(OC)c2ccccc21,9.9
23,CN(C)C(=O)c1ccc(Br)cc1,1.7
24,COc1cccc(C2=N/C(=C\N(C)C)C(=O)O2)c1,0.4

row,SMILES,displacement [%]
1,COc1cc2c(C)nc3c(c(C)nn3C)c2cc1OC,-1.5
2,Nc1ccc(Nc2nc(-c3ccc(Br)cc3)cs2)cc1,11.4
3,CC(=O)NS(=O)(=O)c1ccc(NC(=O)c2ccc3c(c2)OCO3)cc1,19.5
4,O=C(NC(=S)N1CCOCC1)c1ccccc1,12.2
5,Clc1ccc(-c2nnc(-c3cccs3)o2)cc1,-3.6
6,CC1=CC(C)(C)N(C(=O)C(C)N2C(=O)c3ccccc3C2=O)c2cc(C)ccc21 (stereo unspecified),9.7
7,COc1ccc(C2C(C(C)=O)=C(O)C(=O)N2CCN(C)C)cc1OC (stereo unspecified),-7
8,O=C(Nc1cccc(Cl)c1)c1cc2nc(-c3ccc4c(c3)OCO4)cc(C(F)(F)F)n2n1,28.1
9,Oc1cccc(-n2c(O)c(/C=C3\C=Nc4ccccc43)sc2=S)c1,-26.6
10,CCN(CC)CC1OCc2ccccc2CO1,-11.3
11,COc1ccc(/C=C2\SC(=S)N(CCC(N)=O)C2=O)cc1,-0.6
12,COc1ccc(S(=O)(=O)N2CCN(Cc3ccc([N+](=O)[O-])cc3)CC2)cc1,-9.1
13,COc1ccc(/C=C/C(=O)Nc2ccc(OC)c(OC)c2)cc1OC,-7.8
14,CCS/C(=N/Nc1ccc(C)cc1)C(C)=O,6.3
15,CS(=O)(=O)N(CC(=O)N1CCOCC1)c1ccccc1Cl,9.5
16,CCN(CC)C(=O)COc1ccc(-c2ccccc2)cc1,16.6
17,c1ccc(-c2cn3c4c(sc3n2)CCCC4)cc1,-6
18,CCOC(=O)c1cc2ccc(O)cc2oc1=O,15.7
19,Cc1ccccc1NC(=O)CN(c1ccc(Cl)cc1)S(C)(=O)=O,8
20,CC(=O)NC1=NN(C(C)=O)C(C)(c2cccc(NC(C)=O)c2)S1 (stereo unspecified),-5.9
21,COc1ccccc1OCCNC(=O)c1ccc(F)c2ccccc12,-8.4
22,O=C(c1sc2cc(F)ccc2c1Cl)N1CCCCC1,9.1
23,O=C1N/C(=N/N=C/c2cccs2)SC1Cc1ccc(Cl)cc1Cl (stereo unspecified),5.1
24,O=C(c1ccccc1Cl)N(C1CCCCC1)C1CCCCC1,-0.7

row,SMILES,displacement [%]
1,O=C(CSc1nc2ccccc2o1)Nc1ccc2c(c1)OCO2,11.9
2,COc1ccc(C(=O)Nc2nc(C34CC5CC(CC(C5)C3)C4)cs2)cc1,10
3,Cc1cc(C)c2nc3s/c(=C/c4cc([N+](=O)[O-])ccc4Cl)c(=O)n3c2c1,-9.4
4,Cc1ccc(C(=O)N2c3ccccc3-c3c(ssc3=S)C2(C)C)cc1,-9.2
5,CC(=O)Oc1ccc2nc(-c3ccc(C(C)(C)C)cc3)oc(=O)c2c1,-1.2
6,Cc1nn(-c2ccc(Br)cc2)c(=O)c2ccccc12,-0.3
7,O=C(NC(NC(=S)Nc1cccc2ccccc12)C(Cl)(Cl)Cl)c1ccccc1 (stereo unspecified),18.6
8,CCOC(=O)c1ccc(-c2ccc(/C=C3/C(=O)NC(=O)N(c4ccccc4)C3=O)o2)cc1,88.5
9,CCOC(=O)c1ccc(P(C)(C)=O)cc1,1.6
10,CCOc1ccc(N2C(=O)C3C(C2=O)C2(C)C(=O)C3(C)C(c3ccccc3)=C2c2ccccc2)cc1 (stereo unspecified),-3.4
11,Cc1ccc(/C=N/NC(=O)Cc2nnc(N)s2)cc1,2.2
12,COC(=O)c1nnn(-c2cc3nccnc3cc2F)c1C(=O)OC,14.8
13,Cc1ccc(N(CC(=O)NCC(C)NC(=O)CN(c2ccc(C)cc2)S(C)(=O)=O)S(C)(=O)=O)cc1 (stereo unspecified),8.3
14,Cc1sc(NC(=O)c2ccco2)c(C(N)=O)c1C,-1.7
15,COc1ccc(CNCc2ccc([N+](=O)[O-])cc2)c(OC)c1,1.2
16,O=S(=O)(NCCc1ccccc1)c1ccc(Br)cc1,-9.7
17,Cc1c(OCC(=O)OC(C)C)ccc2c3c(c(=O)oc12)CCCC3,-5.1
18,Nc1c(Cl)cc(N2C(=O)C3C4c5ccccc5C(c5ccccc54)C3C2=O)cc1Cl (stereo unspecified),2.4
19,Cc1cccc(NCN2C(=O)CSC2=O)c1,3.1
20,CCCNC(=O)OCC12COC3c4ccccc4OC(C)(CC1C)C3C2C (stereo unspecified),-7.5
